According to the supplement of paper PMC7826260:
Some of the results follow. The data describe in vitro nicking of single-stranded DNA by Rep domains at 3 µM enzyme and 37 °C for 1 h; the strands have 90 letters, of which the middle is given. A value is the log2 ratio of uncut reads to the pool without enzyme; strong cutting gives strongly negative numbers. There is no active / inactive call. Counts are relative to all reads; where an enzyme cuts many sequences, the uncut ones exceed 0.

tested on: T1, Rep nickase domain of maize striate mosaic virus; test: uncleaved DNA left, log2 of reads against the no-enzyme library (log2 ratio); higher = less cleavage (more negative = more Rep cleavage of the k-mer); sequences stand for … in CTCGTCCG…ACCGGAGA
T1 sequence (residues 1-117, tag not shown): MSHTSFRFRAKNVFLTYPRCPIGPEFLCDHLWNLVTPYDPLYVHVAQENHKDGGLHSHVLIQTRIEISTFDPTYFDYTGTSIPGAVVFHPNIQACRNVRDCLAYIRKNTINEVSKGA
Description: (§1)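 A pool of 90-nt single-stranded DNAs with seven random bases just before the constant AC of the nick site (name = the seven bases) was cut by 3 µM recombinant His6-SUMO-tagged Rep nickase domain (300 nM DNA, 50 mM HEPES pH 8.0, 50 mM NaCl, 1 mM MnCl2, 1 h, 37 °C, three replicates). Uncut DNA was amplified and sequenced.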

Sequence | uncleaved DNA left (log2)
GCGGCTC | 1.55
ATTAAAT | -0.557
CTGGATG | -0.338
AGCGCCA | 1.28
ACAACCG | -0.501
TATCTGT | 0.289
CCGATAG | -0.971
TCGTGGT | 0.233
CGCCAGC | 0.419
GACGCAC | -0.0845
GGAATCC | 1.78
ACCGCAA | -0.844
TGGATAC | -0.166
ATGTAAT | 0.142
TTAAAAA | -0.206
TGCTATC | 0.344
AACCATG | -1.01
CGGGATG | 1.12
ATCGGGT | 1.48
CTCTGGA | -0.624

Sequence | uncleaved DNA left (log2)
TGGAGCG | -1.1
GCGTCCT | 0.421
GCAAATT | 0.0041
GGGAAAT | 2.36
GGTCTCT | 1.55
CCAGGCT | 0.17
AGGGGAC | 2.1
AATCATA | -0.646
CGGCGTC | -0.435
TTTAAGA | -0.868
TCGTTTG | -0.928
CTTATGT | -0.826
GCTCCCA | 0.38
CGCCCAA | -0.0974
CTTTTGC | -1.35
GATATAC | 0.782
TGTTTCC | 1.03
GGGCTAA | 2.04
GTCATTT | 1.57
TAGGGAT | 1.83

tested on: T2, Rep nickase domain of porcine circovirus 2; test: as above
T2 sequence (residues 2-116, tag not shown): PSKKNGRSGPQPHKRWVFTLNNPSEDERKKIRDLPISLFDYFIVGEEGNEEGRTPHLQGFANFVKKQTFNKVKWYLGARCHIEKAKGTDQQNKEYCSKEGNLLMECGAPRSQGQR
Description: as §1

Sequence | uncleaved DNA left (log2)
GCGGCTC | -0.0503
ATTAAAT | -1.81
CTGGATG | 0.204
AGCGCCA | -0.0166
ACAACCG | 0.233
TATCTGT | -0.207
CCGATAG | 0.0713
TCGTGGT | -2.99
CGCCAGC | 0.0688
GACGCAC | 0.0698
GGAATCC | 0.181
ACCGCAA | 0.0636
TGGATAC | 0.237
ATGTAAT | -3.44
TTAAAAA | 0.0108
TGCTATC | -0.00394
AACCATG | -0.00615
CGGGATG | 0.0887
ATCGGGT | 0.158
CTCTGGA | -0.0375

Sequence | uncleaved DNA left (log2)
TGGAGCG | 0.129
GCGTCCT | -1.59
GCAAATT | -0.29
GGGAAAT | 0.27
GGTCTCT | 0.0732
CCAGGCT | 0.085
AGGGGAC | 0.205
AATCATA | -0.115
CGGCGTC | 0.0612
TTTAAGA | 0.137
TCGTTTG | -0.058
CTTATGT | -0.214
GCTCCCA | -0.39
CGCCCAA | -0.0204
CTTTTGC | 0.0319
GATATAC | 0.147
TGTTTCC | -0.00281
GGGCTAA | 0.164
GTCATTT | -0.000488
TAGGGAT | 0.133

tested on: T3, Rep nickase domain of tomato yellow leaf curl virus; test: as above
T3 sequence (residues 1-136, tag not shown): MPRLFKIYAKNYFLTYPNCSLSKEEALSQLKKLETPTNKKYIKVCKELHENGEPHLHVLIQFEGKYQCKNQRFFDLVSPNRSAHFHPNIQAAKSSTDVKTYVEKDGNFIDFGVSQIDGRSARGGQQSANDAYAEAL
Description: as §1

Sequence | uncleaved DNA left (log2)
GCGGCTC | -0.0571
ATTAAAT | -0.0807
CTGGATG | -0.0897
AGCGCCA | 0.0278
ACAACCG | 0.0208
TATCTGT | 0.0119
CCGATAG | -0.0591
TCGTGGT | -0.159
CGCCAGC | -0.0899
GACGCAC | -0.0799
GGAATCC | 0.14
ACCGCAA | -0.0915
TGGATAC | -0.0649
ATGTAAT | -0.0424
TTAAAAA | 0.0152
TGCTATC | -0.0505
AACCATG | 0.0853
CGGGATG | -0.0938
ATCGGGT | 0.0843
CTCTGGA | -0.198

Sequence | uncleaved DNA left (log2)
TGGAGCG | 0.103
GCGTCCT | -0.0253
GCAAATT | -0.0272
GGGAAAT | 0.057
GGTCTCT | 0.103
CCAGGCT | 0.0353
AGGGGAC | -0.042
AATCATA | -0.03
CGGCGTC | -0.0972
TTTAAGA | 0.0589
TCGTTTG | -0.0451
CTTATGT | 0.109
GCTCCCA | 0.139
CGCCCAA | 0.0539
CTTTTGC | -0.032
GATATAC | 0.111
TGTTTCC | 0.0406
GGGCTAA | -0.0541
GTCATTT | 0.162
TAGGGAT | -0.0735

tested on: T4, Rep nickase domain of wheat dwarf virus; test: as above
T4 sequence (residues 1-137, tag not shown): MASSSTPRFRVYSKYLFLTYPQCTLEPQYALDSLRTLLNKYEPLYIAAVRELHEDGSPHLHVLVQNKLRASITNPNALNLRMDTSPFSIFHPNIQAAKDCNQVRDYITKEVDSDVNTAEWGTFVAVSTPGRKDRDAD
Description: as §1

Sequence | uncleaved DNA left (log2)
GCGGCTC | 0.0719
ATTAAAT | 0.0271
CTGGATG | -0.132
AGCGCCA | 0.147
ACAACCG | 0.0173
TATCTGT | -0.0564
CCGATAG | -0.119
TCGTGGT | -0.125
CGCCAGC | -0.0526
GACGCAC | -0.0296
GGAATCC | 0.131
ACCGCAA | -0.191
TGGATAC | 0.00192
ATGTAAT | -0.058
TTAAAAA | 0.0267
TGCTATC | 0.0482
AACCATG | 0.106
CGGGATG | -0.0668
ATCGGGT | 0.0938
CTCTGGA | -0.0665

Sequence | uncleaved DNA left (log2)
TGGAGCG | -0.0558
GCGTCCT | 0.135
GCAAATT | 0.0729
GGGAAAT | 0.241
GGTCTCT | -0.00833
CCAGGCT | 0.053
AGGGGAC | 0.113
AATCATA | 0.0254
CGGCGTC | -0.0355
TTTAAGA | 0.0755
TCGTTTG | -0.0401
CTTATGT | 0.0224
GCTCCCA | 0.0238
CGCCCAA | 0.174
CTTTTGC | -0.165
GATATAC | 0.0419
TGTTTCC | -0.108
GGGCTAA | 0.0561
GTCATTT | 0.0122
TAGGGAT | 0.00354
